“And” between values parts separate entries of the source, which are not always exact repeats. Equal entries are not always repeated. Structures can show the parent of a compound that is named as a salt. Some of the results follow. Rule as the data show it: active = -2 or less and inactive = the rest. Repeats are few or missing, and single values can be far off.
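Also: nuclei counted from DAPI counterstain by automated high-content image analysis, four fields per well at ×20 in 384-well plates, with sequential b-score then z-score normalization.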

The experiment has as its system hPSC-derived cortical neurons (WA09). In words: nuclei number (viability) z-score; higher = more surviving cells. Conditions: 5 µM; treatment: days 7-14 after plating, readout day 21.
Turning to `COc1cccc(-c2cc(NCc3ccc4c(c3)OCO4)nc(N)n2)c1` [Wnt agonist 1], the “nuclei number (z-score)” value is active: -6.36. Turning to `CN(C)CC(=O)Nc1ccc2[nH]c(=O)c3ccccc3c2c1`, the “nuclei number (z-score)” value was inactive: 4.8 and inactive: 0.142. On to `CNC(=O)c1cc(Oc2ccc(NC(=O)Nc3ccc(Cl)c(C(F)(F)F)c3)c(F)c2)ccn1` [Regorafenib (BAY 73-4506)], for which the “nuclei number (z-score)” value was inactive: 1.13. Consider `CC(C)(C)NCC(O)COc1cccc2c1CCC(=O)N2` (configuration not stated) [Carteolol HCl], for which the “nuclei number (z-score)” value was inactive: -0.275. In the case of `O=C(Nc1ccccc1-c1cn2c(CN3CCNCC3)csc2n1)c1cnc2ccccc2n1`, the “nuclei number (z-score)” value is active: -2.53.

On to `O=C(O)c1cc(/N=N/c2ccc(O)c(C(=O)O)c2)ccc1O` [Olsalazine Sodium], for which the “nuclei number (z-score)” value is inactive: -0.756. As for `O=C(C1CCCCC1)N1CC(=O)N2CCc3ccccc3C2C1` (configuration not stated) [Praziquantel], the “nuclei number (z-score)” value is inactive: -0.933.

With `C[C@@H]1CCO[C@H]2Cn3cc(C(=O)NCc4ccc(F)cc4F)c(=O)c(O)c3C(=O)N12`, the “nuclei number (z-score)” value is inactive: 0.191. Take `C[C@]1(O)C[C@@H](c2nc(-c3ccc4ccc(-c5ccccc5)nc4c3)c3c(N)nccn32)C1` [OSI-906 (Linsitinib)]: the “nuclei number (z-score)” value was inactive: -0.995.

As for `COc1ccc2c(c1)c(CC(=O)O)c(C)n2C(=O)c1ccc(Cl)cc1` [Indomethacin], the “nuclei number (z-score)” value was inactive: -0.695.

For the molecule `CN1CCC(=C2c3ccccc3CCc3cccnc32)CC1` [Azatadine dimaleate], the “nuclei number (z-score)” value is inactive: 0.322. Turning to `Nc1nc2ccc(OC(F)(F)F)cc2s1` [Riluzole], the “nuclei number (z-score)” value was inactive: 0.11.

Take `CC(C)C[C@H](NC(=O)[C@@H](NC(=O)c1cccc(-c2ccccc2)n1)[C@@H](C)O)B(O)O`: the “nuclei number (z-score)” value is active: -2.82. Consider `CNC(=O)c1cc(Oc2ccc(NC(=O)Nc3cc(C(C)(C)C)nn3-c3ccc4ncccc4c3)c(F)c2)ccn1` [DCC-2036 (Rebastinib)], for which the “nuclei number (z-score)” value was inactive: -1.43. As for `OC[C@H]1O[C@H](O[C@]2(CCl)O[C@H](CCl)[C@@H](O)[C@@H]2O)[C@H](O)[C@@H](O)[C@H]1Cl` [Sucralose], the “nuclei number (z-score)” value was inactive: -0.366.

In the case of `CCC/N=C1\S/C(=C\c2ccc(OC[C@H](O)CO)c(Cl)c2)C(=O)N1c1ccccc1C` [Ponesimod], the “nuclei number (z-score)” value was inactive: -0.297. As for `Nc1ccn([C@H]2CC[C@@H](CO)O2)c(=O)n1` [Zalcitabine], the “nuclei number (z-score)” value is inactive: -0.107. With `CCc1cc(Nc2nccc(-c3c(-c4ccc(OC)c(C(=O)Nc5c(F)cccc5F)c4)nc4ccccn34)n2)c(OC)cc1N1CCC(N2CCN(S(C)(=O)=O)CC2)CC1`, the “nuclei number (z-score)” value is active: -3.25. Take `O=C(Nc1ccccc1C(=O)NC1CCCCNC1=O)c1cc2ccccc2s1` (configuration not stated): the “nuclei number (z-score)” value was inactive: 0.581. On to `CC(C)(C#N)c1cc(Cn2cncn2)cc(C(C)(C)C#N)c1` [Anastrozole], for which the “nuclei number (z-score)” value is inactive: 0.75. The result for `COc1cc2nccc(Oc3ccc(NC(=O)Nc4cc(C)on4)c(Cl)c3)c2cc1OC` [Tivozanib (AV-951)] reads inactive: -0.17; that for `C[C@@H](O)[C@H]1C(=O)N2C(C(=O)O)=C(S[C@@H]3CN[C@H](CNS(N)(=O)=O)C3)[C@H](C)[C@H]12` [Doripenem Hydrate], inactive: 0.238. The figure for `COc1cccc(-n2c(=O)[nH]c3cc(Cl)n(-c4ccc(-c5cccc(OC)c5O)cc4)c3c2=O)c1` is inactive: 3.05; for `Oc1c(I)cc(Cl)c2cccnc12` [Clioquinol] it is inactive: 0.151; for `C=CCNC(N)=S` [Allylthiourea] it is inactive: -0.183. As for `CNC(=O)c1cccc(-c2ccc3c(N4CCOC[C@@H]4C)nc(N4CCOC[C@@H]4C)nc3n2)c1`, the “nuclei number (z-score)” value was inactive: -1.79. As for `CN(C)CCOC(C)(c1ccccc1)c1ccccn1` (configuration not stated) [Doxylamine Succinate], the “nuclei number (z-score)” value was inactive: 0.405. Take `COc1cccc(-c2cc(=O)c3ccccc3o2)c1N`: the “nuclei number (z-score)” value is inactive: 2.07. As to `O=C(CCc1ccc(O)cc1)c1c(O)cc(O)cc1O` [Phloretin], the “nuclei number (z-score)” value is inactive: 0.0777. The result for `N#Cc1cccc(-c2c[nH]c3ncnc(N4CCOCC4)c23)c1` reads inactive: -0.201; that for `CC[C@H](C)[C@H](N)C1=N[C@H](C(=O)N[C@@H](CC(C)C)C(=O)N[C@H](CCC(=O)O)C(=O)N[C@H](C(=O)N[C@H]2CCCCNC(=O)[C@H](CC(N)=O)NC(=O)[C@@H](CC(=O)O)NC(=O)[C@H](Cc3cnc[nH]3)NC(=O)[C@@H](Cc3ccccc3)NC(=O)[C@H]([C@@H](C)CC)NC(=O)[C@@H](CCCN)NC2=O)[C@@H](C)CC)CS1` [Bacitracin], inactive: 0.205; that for `CC(=O)NS(=O)(=O)c1ccc(NC(=O)c2ccccc2C(=O)O)cc1` [Phthalylsulfacetamide], inactive: 0.627. Take `NC(=O)c1cccc2cn(-c3ccc([C@@H]4CCCNC4)cc3)nc12` [Niraparib (MK-4827) tosylate]: the “nuclei number (z-score)” value was inactive: -0.0291. Take `CN(CC(=O)N(Cc1ccc(C2CCCCC2)cc1)c1ccc(C(=O)O)cc1)S(=O)(=O)c1c(F)c(F)c(F)c(F)c1F`: the “nuclei number (z-score)” value was inactive: 1.01.

Regarding `OC(CNCC(O)C1CCc2cc(F)ccc2O1)C1CCc2cc(F)ccc2O1` (configuration not stated) [Nebivolol], the “nuclei number (z-score)” value is inactive: -0.761.

Turning to `O=C(NCc1ccccc1)c1csc(Nc2ccncn2)n1` [Thiazovivin], the “nuclei number (z-score)” value was inactive: 0.315.

For `CNC[C@H](O)c1ccc(O)c(O)c1` [Epinephrine HCl], the “nuclei number (z-score)” value was inactive: 0.193. Take `CNC[C@H](O)c1ccc(O)c(O)c1` [Epinephrine Bitartrate]: the “nuclei number (z-score)” value was inactive: 4.26. As to `CC(S)C(=O)NCC(=O)O` (configuration not stated) [Tiopronin], the “nuclei number (z-score)” value was inactive: 0.102. For `CNCc1ccc(-c2cc(-c3nc(-c4ccc(S(=O)(=O)C(C)C)cc4)cnc3N)on2)cc1`, the “nuclei number (z-score)” value is active: -3.77. The result for `CN1CCN(CCCN2c3ccccc3Sc3ccc(C(F)(F)F)cc32)CC1` [Trifluoperazine 2HCl] reads inactive: -1.86; that for `CCOC(=O)C1=C(COCCN)NC(C)=C(C(=O)OC)C1c1ccccc1Cl` (configuration not stated) [Amlodipine Besylate], inactive: -0.459. Consider `CCOC(=O)C1=C(COCCN)NC(C)=C(C(=O)OC)C1c1ccccc1Cl` (configuration not stated) [Amlodipine], for which the “nuclei number (z-score)” value was inactive: -1.4. Consider `Cc1ncc(CCCN(C)C)cc1Nc1ncc2c(n1)-c1ccc(C(F)(F)F)cc1NC(=S)C2`, for which the “nuclei number (z-score)” value was inactive: -1.02.

Take `Oc1ccc(/C=C/c2cc(O)cc(O)c2)cc1` [Resveratrol]: the “nuclei number (z-score)” value was inactive: 0.00317. As to `CCN(CC)CCNC(=O)c1c(C)[nH]c(/C=C2\C(=O)Nc3ccc(F)cc32)c1C` [Sunitinib], the “nuclei number (z-score)” value was active: -3.01. Regarding `CCN(CC)CCNC(=O)c1c(C)[nH]c(/C=C2\C(=O)Nc3ccc(F)cc32)c1C` [Sunitinib Malate], the “nuclei number (z-score)” value was active: -2.75. Turning to `COc1ccc(/C=C/C(=O)Nc2ccccc2C(=O)O)cc1OC` [Tranilast], the “nuclei number (z-score)” value was inactive: -0.785. As to `C=C1C(=O)[C@]23[C@H](O)[C@H]1CC[C@H]2[C@@]12CO[C@]3(O)[C@@H](O)[C@@H]1C(C)(C)CC[C@@H]2O` [Oridonin], the “nuclei number (z-score)” value was inactive: -1.35. For `CCOc1cc2ncc(C#N)c(Nc3ccc(F)c(Cl)c3)c2cc1NC(=O)/C=C/CN(C)C` [Pelitinib (EKB-569)], the “nuclei number (z-score)” value was active: -3.62.

Regarding `Oc1c(Cl)cc(Cl)c(Cl)c1Cc1c(O)c(Cl)cc(Cl)c1Cl` [Hexachlorophene], the “nuclei number (z-score)” value was inactive: -0.145. The result for `Cc1c(N(C)C)c(=O)n(-c2ccccc2)n1C` [Amidopyrine] reads inactive: 0.0194; that for `Cc1cc(/C=C/C#N)cc(C)c1Nc1ccnc(Nc2ccc(C#N)cc2)n1` [Rilpivirine], inactive: 0.662; that for `CC(=O)[C@H]1CC[C@H]2[C@@H]3C=CC4=CC(=O)CC[C@@]4(C)[C@@H]3CC[C@]12C` [Dydrogesterone], inactive: 1.07. Regarding `O=S(=O)(NCCSSCCNS(=O)(=O)c1cc(Cl)ccc1Cl)c1cc(Cl)ccc1Cl`, the “nuclei number (z-score)” value was inactive: 0.269. The figure for `Cc1cc(=O)[nH]c(=S)[nH]1` [Methylthiouracil] is inactive: -0.0908; for `COc1ccccc1OCC(O)CO` (configuration not stated) [Guaifenesin] it is inactive: 0.098; for `Nc1nc(CC(=O)Nc2ccc(CCNC[C@H](O)c3ccccc3)cc2)cs1` [Mirabegron] it is inactive: 1.11.

Regarding `NC[C@@H]1O[C@H](O[C@H]2[C@@H](O)[C@H](O[C@@H]3[C@@H](O)[C@H](N)C[C@H](N)[C@H]3O[C@H]3O[C@H](CO)[C@@H](O)[C@H](O)[C@H]3N)O[C@@H]2CO)[C@H](N)[C@@H](O)[C@@H]1O` [Paromomycin Sulfate], the “nuclei number (z-score)” value was inactive: -0.069. As to `CC[C@]1(O)C[C@H]2CN(CCc3c([nH]c4ccccc34)[C@@](C(=O)OC)(c3cc4c(cc3OC)N(C=O)[C@H]3[C@@](O)(C(=O)OC)[C@H](OC(C)=O)[C@]5(CC)C=CCN6CC[C@]43[C@@H]65)C2)C1` [Vincristine], the “nuclei number (z-score)” value is active: -2.43. With `Cc1cccc(C)c1OCC(C)N` (configuration not stated) [Mexiletine HCl], the “nuclei number (z-score)” value was inactive: 0.216. Turning to `CN[C@@H](C)C(=O)N[C@H]1CN(C(=O)CC(C)C)CC[C@H]2CC[C@@H](C(=O)NC(c3ccccc3)c3ccccc3)N2C1=O`, the “nuclei number (z-score)” value was inactive: -0.0994. As to `CN1[C@@H]2CC[C@H]1C[C@@H](OC(=O)c1c[nH]c3ccccc13)C2` [Tropisetron], the “nuclei number (z-score)” value is inactive: 0.397. The figure for `NC(=O)c1cn(Cc2c(F)cccc2F)nn1` [Rufinamide] is inactive: 0.982. In the case of `Cc1cc(O)c2c(c1)C(=O)c1cccc(O)c1C2=O` [Chrysophanic Acid], the “nuclei number (z-score)” value was inactive: -0.0867. Take `CC(C(=O)O)c1ccc(-c2ccccc2)c(F)c1` (configuration not stated) [Flurbiprofen]: the “nuclei number (z-score)” value was inactive: -1.17. On to `O=C(OCC(O)CO)c1ccccc1Nc1ccnc2cc(Cl)ccc12` (configuration not stated) [Glafenine HCl], for which the “nuclei number (z-score)” value is inactive: 0.372.

The values above are taken from the supplement of paper PMC11348887.
